Experimental findings from patent US20260085122A1 (BEONE MEDICINES I, published 2026) are described below.

One assay has as its target T1, hu 4Ig-B7H3 ECD-mIgG2a (human).
T1 construct: Made in house in HEK293-based cells; also called mIgG2a Fc-fusion protein of hu 4Ig-B7H3 ECD
T1 chain: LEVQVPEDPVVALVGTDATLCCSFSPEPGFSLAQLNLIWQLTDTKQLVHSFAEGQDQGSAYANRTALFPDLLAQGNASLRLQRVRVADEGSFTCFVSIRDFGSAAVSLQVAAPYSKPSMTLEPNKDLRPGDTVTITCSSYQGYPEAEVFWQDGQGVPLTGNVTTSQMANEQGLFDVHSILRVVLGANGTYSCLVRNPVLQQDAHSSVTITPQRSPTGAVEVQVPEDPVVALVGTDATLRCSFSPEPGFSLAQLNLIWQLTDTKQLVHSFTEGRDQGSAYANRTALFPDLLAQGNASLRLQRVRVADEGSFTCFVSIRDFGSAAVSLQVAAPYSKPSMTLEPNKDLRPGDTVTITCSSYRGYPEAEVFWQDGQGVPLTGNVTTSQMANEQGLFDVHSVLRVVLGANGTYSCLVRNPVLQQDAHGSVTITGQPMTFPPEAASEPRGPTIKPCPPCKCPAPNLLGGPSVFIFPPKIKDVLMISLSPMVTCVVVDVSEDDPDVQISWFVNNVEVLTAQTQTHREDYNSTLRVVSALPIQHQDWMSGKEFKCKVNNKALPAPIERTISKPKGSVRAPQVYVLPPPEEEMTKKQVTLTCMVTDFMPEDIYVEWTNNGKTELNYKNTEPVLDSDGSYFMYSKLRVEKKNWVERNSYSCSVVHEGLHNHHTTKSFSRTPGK
Kind of assay: antigen ELISA, antigen coated, detection with HRP anti-human IgG. Here is the method: (§1) For antigen ELISA, a Maxisorp immunoplate was coated with antigen hu 4Ig-B7H3 ECD-mIgG2a or mouse B7H3-his (SinoBiological, 50973-M08H) and blocked with 3% BSA (w/v) in PBS buffer (blocking buffer). Monoclonal VHH antibodies were added to wells of the ELISA plate for 1 hour. After washes with TBST, bound antibodies were detected using HRP-conjugated anti-human IgG antibody (Sigma, A0170) and 3,3′,5,5′-tetramethylbenzidine substrate (Invitrogen).
For orientation: An ELISA detects its analyte on a solid surface through an enzyme-linked reagent.

The target in a further assay is T2, mouse B7H3-his (mouse, UniProt Q8VE98).
T2 construct: recombinant, His-tagged; not in the list MOLECULES; also called mouse B7H3-His (SinoBiological, 50973-M08H)
T2 sequence (antigen coated on the ELISA plate, looked up): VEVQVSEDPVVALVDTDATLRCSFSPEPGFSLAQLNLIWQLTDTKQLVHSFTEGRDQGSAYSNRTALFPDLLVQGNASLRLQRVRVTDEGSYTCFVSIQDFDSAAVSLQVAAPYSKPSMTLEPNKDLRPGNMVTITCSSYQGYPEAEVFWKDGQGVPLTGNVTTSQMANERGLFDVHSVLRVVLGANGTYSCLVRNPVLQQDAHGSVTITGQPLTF
Described as above. On the procedure: as §1

B1: BGA-056 (Fc fusion)
chain: EVQLLESGGGLVQPGGSLRLSCAASGFTFSDYHMSWVRQAPGKGLEWVSGILNTGLSPTYAATVTGRFTISRDNAKNTLYLSMNSLKPEDTAVYYCAQGYYRATPSQANRGQGTQVTVSS[human IgG1 Fc with C220S (EU numbers) left out]
notes: Llama VHH fused at the N terminal of human IgG1 Fc (VHH-Fc); also called BGA-056 chimeric; chimeric BGA-056
As to B1, the binding result with hu 4Ig-B7H3 ECD-mIgG2a was “binds”.

B2: BGA-026 (Fc fusion)
chain: EVQLVESGGGLVQTGDSLRLSCAASPRTFQTYFMGWFRQAPGKEREFVSVINWSGGTSYYKDSVKGRFTISRDNAKNTVYLQMNNLKPEDTAVYYCAAKGSGTYDREGEYDYWGQGTQVTVSS[human IgG1 Fc with C220S (EU numbers) left out]
notes: Llama VHH fused at the N terminal of human IgG1 Fc (VHH-Fc); also called BGA-026 chimeric; chimeric BGA-026
B2: the binding result with mouse B7H3-his and with hu 4Ig-B7H3 ECD-mIgG2a was “binds” throughout.
